# Measured values reported in PubChem BioAssay (Tox21).
# The shares of active, inactive and inconclusive entries below differ from those in the screen. For some of these results: Potencies beside an inconclusive call are fits to weak or partial responses and may not hold up. The source holds several records for some structures; these can differ, active in one and inactive in another. The source made the active and inactive calls. Unless noted, calls come from the whole dose curve.
# Key:
# [1] = qHTS assay to identify small molecule agonists of the endoplasmic reticulum stress response signaling pathway - cell viability counter screen (AID 1159517); note: nearly all actives have a fitted effect of over 50% in size; note: potency is the fitted concentration of half-maximal effect
# Summary of the method: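 ESRE-bla HeLa cells (1,500/well) were plated overnight at 37 C and exposed to compounds for 5 hr. After the 2 hr beta-lactamase substrate read, CellTiter-Glo went into the same wells, and luminescence was read after 30 min at room temperature.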
# [2] = target: Nuclear receptor ROR-gamma (Homo sapiens) (UniProt P51449); experiment: qHTS assay to identify small molecule antagonists of the retinoid-related orphan receptor gamma (ROR-gamma) signaling pathway (AID 1159521; active = well fitted curve in the direction sought with a large enough effect in the repeat runs; inconclusive = weak or mixed curves; inactive = no such curve, though single readings can be large; an effect the other way counts as inactive or inconclusive; note: nearly all actives have a fitted effect of over 50% in size; note: potency is the fitted concentration of half-maximal effect;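 for activity change, negative = inhibition: CHO cells with doxycycline inducible ROR-gamma driving an RORE luciferase reporter; top concentration of the series differs between compounds; % is set by controls: 0 for no effect and ±100 for the full control effect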)
# Summary of the method: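 CHO Tet-on RORγ, RORE-luc reporter. Cpd 2 h pre-incubation, then dox hyclate 1 uM final, 16 h, 37 C/5% CO2. ONE-Glo luminescence; decrease = antagonist.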
# [3] = qHTS assay to identify small molecule agonists of the AP-1 signaling pathway (AID 1159526); conditions: ME-180 (cervical carcinoma) AP-1-bla reporter, beta-lactamase FRET ratio, 5 h; activation: at 76.8 µM (top of the series) unless noted; note: potency is the fitted concentration of half-maximal effect
# [4] = target: Retinoic acid receptor RXR-alpha (Homo sapiens) (UniProt P19793); experiment: qHTS assay to identify small molecule agonists of the RXR signaling pathway (AID 1159527); conditions: HEK293T RXRa-UAS-bla, beta-lactamase ratio, 16 h; activation: at 76.8 µM (top of the series) unless noted; note: nearly all actives have a fitted effect of over 35% in size; note: potency is the fitted concentration of half-maximal effect; for activation: % is set by controls: 0 for no effect and ±100 for the full control effect
# Summary of the method: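 Read-out: beta-lactamase FRET ratio (405 nm excitation, 460 and 530 nm emission) after 2 hr substrate loading at room temperature. Cells were RXR-alpha-UAS-bla HEK 293T treated with compounds for 16 hr in 2% charcoal-stripped FBS medium.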
# [5] = target: Peroxisome proliferator-activated receptor delta (Homo sapiens) (UniProt Q03181); experiment: qHTS assay to identify small molecule agonists of the peroxisome proliferator-activated receptor delta (PPARd) signaling pathway (AID 743212); conditions: HEK293H PPARd-UAS-bla, beta-lactamase FRET ratio, 17 h; activation: at 62.6 µM (top of the series) unless noted;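 note: HEK293H cells with PPARd UAS beta-lactamase reporter GeneBLAzer system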; note: potency is the fitted concentration of half-maximal effect
# Summary of the method: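 Beta-lactamase reporter readout: a ratiometric FRET signal from the LiveBLAzer substrate after 2 h at room temperature. Compound exposure at 37 °C in PPARδ-bla HEK293H cells driven by an upstream activator sequence.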
# [6] = qHTS assay to identify small molecule antagonists of the peroxisome proliferator-activated receptor delta (PPARd) signaling pathway - cell viability counter screen (AID 743213; active = well fitted curve in the direction sought with a large enough effect in the repeat runs; inconclusive = weak or mixed curves; inactive = no such curve, though single readings can be large; an effect the other way counts as inactive or inconclusive; note: nearly all actives have a fitted effect of over 50% in size; note: potency is the fitted concentration of half-maximal effect); conditions: PPARd-bla HEK293H viability, CellTiter-Glo luminescence, 17 h; viability change, negative = cytotoxic: at 62 µM (top of the series) unless noted
# Summary of the method: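 HEK293H PPARd UAS-bla cells, 5 h pre-incubation, compound + L165041 300 nM final, 17 h 37 C; B/G FRET substrate 2 h RT; then CellTiter-Glo 30 min RT, luminescence.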
# [7] = target: Peroxisome proliferator-activated receptor delta (Homo sapiens) (UniProt Q03181); experiment: qHTS assay to identify small molecule antagonists of the peroxisome proliferator-activated receptor delta (PPARd) signaling pathway (AID 743215; active = well fitted inhibition curve with a large enough effect in the signal ratio in the repeat runs, not every such curve was filed as active; inconclusive = weak or mixed curves, or effect the other way; inactive = no such curve, though single readings can be large or run the other way; the % refers to the signal ratio;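 note: cells stimulated with agonist L165041 at 300 nM final during compound exposure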; note: potency is the fitted concentration of half-maximal effect); conditions: HEK293H PPARd-UAS-bla, beta-lactamase FRET ratio, antagonist, 17 h; ratio activity, negative = inhibition: at 62 µM (top of the series) unless noted
# Summary of the method: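 Here, a reporter line (HEK293H, beta-lactamase under a UAS) measures PPARd signaling. Compounds are tested against agonist L165041 at 300 nM final concentration over 17 h at 37 C, with fluorescence read after substrate.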
# [8] = qHTS assay to identify small molecule agonists of the farnesoid-X-receptor (FXR) signaling pathway - cell viability counter screen (AID 743218; active = well fitted curve in the direction sought with a large enough effect in the repeat runs; inconclusive = weak or mixed curves; inactive = no such curve, though single readings can be large; an effect the other way counts as inactive or inconclusive; note: potency is the fitted concentration of half-maximal effect; nearly all actives have a fitted effect of over 45% in size); conditions: FXR-bla HEK293T viability, CellTiter-Glo luminescence, 16 h; viability change, negative = cytotoxic: at 62.6 µM (top of the series) unless noted
# Summary of the method: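 Quantitative HTS counter screen measuring ATP-based viability via CellTiter-Glo luminescence in HEK 293T cells carrying a UAS-driven beta-lactamase reporter, after 16 h compound exposure at 37 C.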
# [9] = target: Vitamin D3 receptor (Homo sapiens) (UniProt P11473); experiment: qHTS assay to identify small molecule agonists of the vitamin D receptor (VDR) signaling pathway (AID 743222); conditions: HEK293T VDR-UAS-bla, beta-lactamase FRET ratio, 16 h; activation: at 63.5 µM (top of the series) unless noted; note: potency is the fitted concentration of half-maximal effect
# Summary of the method: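 Tox21 cell reporter format: VDR-bla line, 16 h compound exposure in 5% CO2 at 37C, then fluorescence intensity after 2 h with LiveBLAzer B/G FRET substrate.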
# [10] = target: Vitamin D3 receptor (Homo sapiens) (UniProt P11473); experiment: qHTS assay to identify small molecule antagonists of the vitamin D receptor (VDR) signaling pathway (AID 743223; active = well fitted inhibition curve with a large enough effect in the signal ratio in the repeat runs, not every such curve was filed as active; inconclusive = weak or mixed curves, or effect the other way; inactive = no such curve, though single readings can be large or run the other way; the % refers to the signal ratio; note: potency is the fitted concentration of half-maximal effect); conditions: VDR-UAS-bla HEK293T, beta-lactamase FRET ratio, 16 h; activity change, negative = inhibition: at 61 µM (top of the series) unless noted
# Summary of the method: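 Antagonist mode uses 1alpha,25-dihydroxyvitamin D3 at 3 nM final as stimulus. VDR-bla cells receive compounds in DMSO, incubate 16 h at 37C, then a beta-lactamase FRET substrate for 2 h at room temperature before fluorescence measurement.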
# [11] = qHTS assay to identify small molecule antagonists of the vitamin D receptor (VDR) signaling pathway - cell viability counter screen (AID 743225; active = well fitted curve in the direction sought with a large enough effect in the repeat runs; inconclusive = weak or mixed curves; inactive = no such curve, though single readings can be large; an effect the other way counts as inactive or inconclusive; note: nearly all actives have a fitted effect of over 50% in size; note: potency is the fitted concentration of half-maximal effect); conditions: VDR-bla HEK293T viability, CellTiter-Glo luminescence, 16 h; viability change, negative = cytotoxic: at 61 µM (top of the series) unless noted
# Summary of the method: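 Read-out: CellTiter-Glo luminescence measured 30 min after reagent addition at room temperature. Cells were VDR-bla HEK 293T exposed 16 h at 37C, 5% CO2, to compound with 3 nM final calcitriol agonist.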
# [12] = qHTS assay to identify small molecule agonists of the AP-1 signaling pathway - cell viability counter screen (AID 1159525); note: nearly all actives have a fitted effect of over 55% in size; note: potency is the fitted concentration of half-maximal effect
# Summary of the method: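 Intracellular ATP by Cell Titer Glo luminescence (30 min, RT) in the same ME-180 AP-1-bla wells after the 5 h compound exposure at 37 °C. Normalised to tetra n-octyl ammonium bromide and DMSO controls.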
# [13] = target: Bile acid receptor (Homo sapiens) (UniProt Q96RI1); experiment: qHTS assay to identify small molecule antagonists of the farnesoid-X-receptor (FXR) signaling pathway (AID 743217; active = well fitted inhibition curve with a large enough effect in the signal ratio in the repeat runs, not every such curve was filed as active; inconclusive = weak or mixed curves, or effect the other way; inactive = no such curve, though single readings can be large or run the other way; the % refers to the signal ratio; note: % is set by controls: 0 for no effect and ±100 for the full control effect); conditions: HEK293T FXR-UAS-bla, beta-lactamase ratio, CDCA-stimulated, 16 h; activity change, negative = inhibition: at 62.6 µM (top of the series) unless noted
# Summary of the method: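 Test compounds are pin-transferred onto FXR-bla HEK 293T cells, then chenodeoxycholic acid is added at 50 uM final. After 16 h at 37 °C, LiveBLAzer B/G substrate is applied for 2 h at room temperature and fluorescence read.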
# [14] = target: Bile acid receptor (Homo sapiens) (UniProt Q96RI1); experiment: qHTS assay to identify small molecule agonists of the farnesoid-X-receptor (FXR) signaling pathway (AID 743220; active = well fitted activation curve with a large enough effect in the signal ratio in the repeat runs, not every such curve was filed as active; inconclusive = weak or mixed curves, or effect the other way; the % refers to the signal ratio; note: % is set by controls: 0 for no effect and ±100 for the full control effect); conditions: HEK293T FXR-UAS-bla, beta-lactamase FRET ratio, 16 h; activation: at 62.6 µM (top of the series) unless noted
# Summary of the method: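 FXR-UAS-bla HEK 293T cells carrying a UAS-driven beta-lactamase reporter were plated for 5 h at 37C/5% CO2, then exposed to DMSO-dissolved Tox21 10K compounds for 16 h at 37C. A LiveBLAzer B/G FRET substrate was loaded for 2 h at room temperature before fluorescence reading.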
# [15] = qHTS assay to identify small molecule agonists of the RXR signaling pathway - cell viability counter screen (AID 1159529; active = well fitted curve in the direction sought with a large enough effect in the repeat runs; inconclusive = weak or mixed curves; inactive = no such curve, though single readings can be large; an effect the other way counts as inactive or inconclusive)
# Summary of the method: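 HEK 293T RXRa-bla cells, 2% CS-FBS; 5 h settle; cpd 16 h 37 C, 5% CO2; CellTiter-Glo 30 min RT, luminescence. Tetraoctyl ammonium bromide as positive control.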
# [16] = qHTS assay to identify small molecule agonists of the vitamin D receptor (VDR) signaling pathway - cell viability counter screen (AID 743224; active = well fitted curve in the direction sought with a large enough effect in the repeat runs; inconclusive = weak or mixed curves; inactive = no such curve, though single readings can be large; an effect the other way counts as inactive or inconclusive); conditions: VDR-bla HEK293T viability, CellTiter-Glo luminescence, 16 h; activity change, negative = cytotoxicity: at 62.6 µM (top of the series)
# Summary of the method: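 CellTiter-Glo viability readout on VDR-bla cells, measured after 16 h of compound treatment at 37C in the same wells.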
# [17] = qHTS assay to identify small molecule antagonists of the retinoid acid receptor (RAR) signaling pathway - cell viability counter screen (AID 1159551; active = well fitted curve in the direction sought with a large enough effect in the repeat runs; inconclusive = weak or mixed curves; inactive = no such curve, though single readings can be large; an effect the other way counts as inactive or inconclusive; note: potency is the fitted concentration of half-maximal effect; nearly all actives have a fitted effect of over 35% in size)
# Summary of the method: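 In this counter screen, the RARE-luciferase line C3RL4 was exposed for 6 h at 37 C and 5% CO2 to compounds with retinol at 1 uM final. Cellular ATP, read by luminescence, served as the viability measure.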
# Tags give direction and shape of the fitted curve or compound fluorescence and quenching.
# UniProt Q03181, sequence (Q03181 whole entry, looked up): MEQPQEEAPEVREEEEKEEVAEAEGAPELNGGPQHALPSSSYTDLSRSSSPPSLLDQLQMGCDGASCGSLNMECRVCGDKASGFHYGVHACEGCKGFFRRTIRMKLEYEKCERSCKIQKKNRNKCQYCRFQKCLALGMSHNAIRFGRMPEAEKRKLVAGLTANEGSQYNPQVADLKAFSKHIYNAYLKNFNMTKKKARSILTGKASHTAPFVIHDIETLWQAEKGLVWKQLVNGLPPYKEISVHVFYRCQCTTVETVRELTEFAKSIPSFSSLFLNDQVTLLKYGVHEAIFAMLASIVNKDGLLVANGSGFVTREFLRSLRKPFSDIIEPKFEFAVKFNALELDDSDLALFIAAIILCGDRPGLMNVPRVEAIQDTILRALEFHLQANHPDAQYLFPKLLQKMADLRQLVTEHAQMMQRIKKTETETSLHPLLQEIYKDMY
# UniProt Q96RI1, sequence (Q96RI1 whole entry, looked up): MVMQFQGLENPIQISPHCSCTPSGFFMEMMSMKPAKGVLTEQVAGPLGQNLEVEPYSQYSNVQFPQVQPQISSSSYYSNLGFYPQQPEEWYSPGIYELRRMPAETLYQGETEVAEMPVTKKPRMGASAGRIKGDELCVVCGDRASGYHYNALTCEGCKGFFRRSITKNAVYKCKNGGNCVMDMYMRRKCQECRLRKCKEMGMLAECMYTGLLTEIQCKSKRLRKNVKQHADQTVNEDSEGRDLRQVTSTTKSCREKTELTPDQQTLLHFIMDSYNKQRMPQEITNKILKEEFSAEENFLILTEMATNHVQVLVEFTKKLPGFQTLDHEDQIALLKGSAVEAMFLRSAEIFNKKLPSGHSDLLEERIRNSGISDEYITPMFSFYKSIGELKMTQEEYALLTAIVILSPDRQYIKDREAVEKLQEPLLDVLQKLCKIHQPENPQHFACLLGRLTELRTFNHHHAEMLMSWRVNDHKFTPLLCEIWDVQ
# UniProt P19793, sequence (P19793 whole entry, looked up): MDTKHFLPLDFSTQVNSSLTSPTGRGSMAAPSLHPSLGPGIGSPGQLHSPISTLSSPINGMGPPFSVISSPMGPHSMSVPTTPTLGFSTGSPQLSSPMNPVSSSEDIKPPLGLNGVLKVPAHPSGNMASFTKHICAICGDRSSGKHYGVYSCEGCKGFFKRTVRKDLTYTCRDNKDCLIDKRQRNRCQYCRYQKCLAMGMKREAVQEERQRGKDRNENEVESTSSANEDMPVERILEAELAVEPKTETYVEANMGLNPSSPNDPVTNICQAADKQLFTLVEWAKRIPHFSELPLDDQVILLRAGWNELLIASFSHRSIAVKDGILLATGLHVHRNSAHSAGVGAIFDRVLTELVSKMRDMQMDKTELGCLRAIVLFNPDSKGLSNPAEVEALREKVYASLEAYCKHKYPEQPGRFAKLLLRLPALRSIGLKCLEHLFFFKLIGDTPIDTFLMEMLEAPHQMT
# UniProt P11473, sequence (P11473 whole entry, looked up): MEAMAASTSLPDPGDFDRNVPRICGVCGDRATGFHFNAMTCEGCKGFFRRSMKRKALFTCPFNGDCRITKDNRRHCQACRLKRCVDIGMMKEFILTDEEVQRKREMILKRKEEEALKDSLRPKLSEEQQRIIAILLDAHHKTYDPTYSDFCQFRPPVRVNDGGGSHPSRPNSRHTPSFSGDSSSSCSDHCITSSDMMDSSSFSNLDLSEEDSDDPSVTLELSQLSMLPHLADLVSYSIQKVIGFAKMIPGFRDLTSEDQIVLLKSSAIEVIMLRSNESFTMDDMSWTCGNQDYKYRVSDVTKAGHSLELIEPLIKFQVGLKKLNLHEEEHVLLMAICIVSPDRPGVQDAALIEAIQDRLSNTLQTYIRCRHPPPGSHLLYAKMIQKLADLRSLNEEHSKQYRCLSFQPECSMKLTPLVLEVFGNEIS
smiles,measurement,setting,value
O=C(O)CN(CCN(CC(=O)O)CC(=O)O)CC(=O)O,Potency,[1],"inconclusive: 0.22 µM [cytotoxic, partial curve, poor fit]"
same,Potency,[2],"inconclusive: 2.18 µM [inhibitor, partial curve, poor fit]"
same,Potency,[3],"inconclusive: 2.76 µM [falling, partial curve, poor fit]"
same,activation,[4],inactive: -6.85% [at 2.71 µM]
O=S(=O)(Cl)c1c(Cl)cccc1Cl,Potency,[1],"inconclusive: 0.154 µM [cytotoxic, single point]"
same,Potency,[2],inactive
CCCCCCCCCCCSCC(=O)O,Potency,[5],inconclusive: 24.5 µM
same,Potency,[6],"inconclusive: 38.9 µM [cytotoxic, partial curve, poor fit]"
same,Potency,[7],"inconclusive: 54.9 µM [rising, single point]"
same,Potency,[8],"inconclusive: 34.7 µM [cytotoxic, partial curve, poor fit]"
same,Potency,[9],"inconclusive: 49 µM [fluorescent, partial curve]"
same,Potency,[10],"inconclusive: 17.4 µM [fluorescent, partial curve, poor fit]"
same,Potency,[11],active: 21.9 µM
same,Potency,[1],"inconclusive: 61.7 µM [cytotoxic, single point]"
same,Potency,[2],"inconclusive: 77 µM [inhibitor, single point]"
same,Potency,[4],inconclusive: 24.5 µM [fluorescent]
CCCCOC(=O)CCCCCCCC(=O)OCCCC,Potency,[6],inactive
same,"ratio activity, negative = inhibition",[7],inconclusive: -0.662%
same,Potency,[10],"inconclusive: 0.275 µM [rising, full curve, poor fit]"
same,Potency,[11],inactive
same,Potency,[1],inactive
same,Potency,[2],"inconclusive: 24.3 µM [inhibitor, single point]"
same,Potency,[12],inactive
C/C=C(\C)C(=O)OCCC(C)CCC=C(C)C (stereo not drawn),Potency,[13],inactive
same,Potency,[14],inactive
same,Potency,[1],inactive
same,Potency,[2],"inconclusive: 0.243 µM [inhibitor, single point]"
same,Potency,[3],inactive
CC(C)Cc1ccc(C(C)C(=O)OCc2ccccn2)cc1 (stereo not drawn),Potency,[7],inactive
same,Potency,[13],inactive
same,Potency,[14],inactive
same,Potency,[10],inactive
same,Potency,[1],inactive
same,Potency,[2],"inconclusive: 1.19 µM [inhibitor, single point]"
same,Potency,[12],active: 0.239 µM
same,Potency,[4],"inconclusive: 10.7 µM [inhibitor, partial curve, poor fit]"
Cc1cnc(C)c(C)n1,Potency,[5],inactive
same,Potency,[10],"inconclusive: 3.24 µM [rising, partial curve, poor fit]"
same,Potency,[1],inactive
same,Potency,[2],"inconclusive: 0.509 µM [inhibitor, partial curve, poor fit]"
same,activation,[4],inconclusive: 5.19%
same,Potency,[15],"inconclusive: 57.6 µM [cytotoxic, partial curve, poor fit]"
CCO[Si](CCCN)(OCC)OCC,Potency,[6],"inconclusive: 0.0195 µM [cytotoxic, full curve, poor fit]"
same,"activity change, negative = inhibition",[13],inconclusive: -13%
same,activation,[14],inconclusive: -0.712%
same,Potency,[16],"inconclusive: 13.8 µM [cytotoxic, full curve, poor fit]"
same,Potency,[1],inactive
same,Potency,[2],inactive
same,Potency,[4],active: 19.5 µM and inactive
CCC(=O)Oc1ccc(/C(CC)=C(\CC)c2ccc(OC(=O)CC)cc2)cc1,Potency,[5],inactive
same,Potency,[6],"inconclusive: 30.9 µM [cytotoxic, partial curve, poor fit]"
same,Potency,[7],"inconclusive: 54.9 µM [rising, single point]"
same,Potency,[8],"inconclusive: 61.7 µM [cytotoxic, single point]"
same,Potency,[9],inconclusive: 54.9 µM
same,Potency,[10],inactive
same,Potency,[1],inactive
same,Potency,[2],"inconclusive: 43.3 µM [inhibitor, partial curve]"
same,Potency,[4],inconclusive: 43.6 µM [fluorescent]
COc1cc(N)c(Cl)cc1C(=O)NC1CCN(Cc2ccccc2)CC1,Potency,[1],inactive
same,Potency,[2],"inconclusive: 1.19 µM [inhibitor, single point]"
C=C(C)C(=O)OCCCCCCCCCC,Potency,[5],"inconclusive: 55.3 µM [rising, partial curve, poor fit]"
same,Potency,[6],active: 39.2 µM
same,Potency,[7],inconclusive: 22 µM
same,Potency,[8],"inconclusive: 55.3 µM [cytotoxic, single point]"
same,activation,[14],inconclusive: -10.5% [at 81.1 µM]
same,activation,[9],inconclusive: -5.84% [at 81.1 µM]
same,Potency,[16],active: 44 µM
same,Potency,[1],"inconclusive: 0.877 µM [cytotoxic, partial curve, poor fit]"
same,Potency,[2],inactive
same,Potency,[3],inconclusive: 62.1 µM
same,Potency,[4],inconclusive: 62.1 µM
same,Potency,[15],inconclusive: 62.1 µM [cytotoxic]
same,Potency,[17],"inconclusive: 24.5 µM [rising, partial curve, poor fit]"
